This is one part of the list. At the low end of the ranking, values are background and their order means little.

The target of this test is SIX1 homeodomain (reference allele) (UniProt Q15475). Briefly: universal protein binding microarray. The settings on record: Universal all-10-mer PBM (8x60K, AMADID 030236), 300 nM GST-tagged protein, Alexa Fluor 488 anti-GST; buffer, salt, pH and temperature not stated; high values mean tight binding; most listed sequences are background and not binding sites; double strand, one strand shown.
In the case of CCTCTTGC, the binding signal is -0.195 E-score.
In the case of GCAGAACA it was -0.0357 E-score; in that of CCGATCTA, 0.262 E-score.
Turning to ATAACAGG, the binding signal was -0.102 E-score.
For the sequence CAGGCTTC, the binding signal was -0.111 E-score.
For ATATTCTC, the binding signal was 0.269 E-score.
In the case of AGGCCAAA it was -0.316 E-score; in that of ATCCCTGC, 0.233 E-score.
In the case of AAGGACAA it was -0.239 E-score; in that of AACTTCGA, -0.195 E-score.
In the case of ATTACTAC it was -0.0661 E-score.
Regarding ATCTCAGC, the binding signal was determined as 0.21 E-score.
As for CATAACCG, the figure is -0.033 E-score.
Turning to GCTTGGAC, the binding signal is -0.0873 E-score.
For the sequence CTCTAGCC, the binding signal is -0.068 E-score.
Take CGTGCTTA: the binding signal was -0.14 E-score.
CTGCCCCA: the binding signal is -0.00338 E-score.
As for ACATCCGA, the binding signal is 0.0707 E-score.
As for TGGCAACA, the figure is -0.117 E-score; as for AGTGTAAG, -0.00617 E-score; as for ACGATGTC, -0.149 E-score.
With CGGGAAAC, the binding signal is 0.0256 E-score.
In the case of ACAAATCA it was -0.103 E-score; in that of CTTTCATA, -0.143 E-score.
In the case of CTTTGGCC it was -0.205 E-score.
As for CGATCTGC, the binding signal is 0.209 E-score.
Take ATGTGCAA: the binding signal is -0.109 E-score.
On to CCGCTACC, for which the binding signal was -0.0386 E-score.
In the case of ATCCAGCG it was 0.165 E-score; in that of ACACGGGT, 0.23 E-score; in that of AGGATGAC, 0.0837 E-score.
With TGCGCGAA, the binding signal is -0.124 E-score.
As to AGGAGAAG, the binding signal was determined as 0.127 E-score.
CAGTTACG: the binding signal was -0.249 E-score.
In the case of CGACGCTA it was -0.0888 E-score; in that of CTATGCTA, 0.0235 E-score.
For GCAAAAGC, the binding signal was -0.159 E-score.
As for GGTTCATA, the figure is 0.154 E-score; as for CAGAGATC, 0.296 E-score.
For the sequence GAAAATCC, the binding signal was -0.113 E-score.
Regarding CTCCACGC, the binding signal is -0.165 E-score.
As for CCGGAAAC, the figure is 0.0143 E-score; as for CGGAGTCC, -0.202 E-score; as for ACGTTGCC, -0.253 E-score.
In the case of AGATACGA it was 0.279 E-score.
As for AGCCCGTC, the figure is -0.182 E-score; as for CATATTGA, 0.178 E-score; as for ATGCATGA, 0.162 E-score.
As for ACACCGCG, the binding signal stood at 0.283 E-score.
As for CATGACGC, the figure is -0.0877 E-score; as for TACAGATA, 0.267 E-score.
As for CGAGAAGC, the figure is 0.0719 E-score; as for CAGACCGC, -0.12 E-score; as for ACTATTTA, -0.0352 E-score.
In the case of ACTATGCT it was -0.053 E-score.
With CCTGCCGA, the binding signal came out at 0.0432 E-score.
As for ATTGTGTC, the figure is 0.0154 E-score; as for AAGGCGAA, -0.282 E-score.
For ACCACACC, the binding signal worked out at 0.174 E-score.
As for CCCGTGTC, the figure is 0.255 E-score; as for CCCCAGTC, -0.0618 E-score; as for TATCTTGA, 0.252 E-score.
As for AGTCGCTG, the figure is -0.277 E-score.
As for CAGCTGCA, the figure is -0.168 E-score; as for CCGACCAC, -0.0149 E-score; as for GTATAGAA, 0.215 E-score.
CTCCCTCA: the binding signal came to 0.0199 E-score.
As for ATCGCATG, the figure is 0.247 E-score; as for TCTACTCA, 0.118 E-score.
Take AAAAAGGT: the binding signal was -0.108 E-score.
Consider AGGTTCAC, for which the binding signal was -0.141 E-score.
Consider CGGAATAA, for which the binding signal is -0.143 E-score.
Regarding CTTGGCCC, the binding signal was -0.193 E-score.
As for ACGTTGCG, the figure is -0.209 E-score; as for AGTGTGCC, -0.152 E-score.
For the sequence GGCTCCAA, the binding signal was -0.244 E-score.
In the case of GTTAGAAC it was -0.087 E-score.
As for CAGTGAAG, the figure is -0.108 E-score; as for CCCGCTAA, 0.0135 E-score.
On to AAAGCCGG, for which the binding signal is -0.119 E-score.
As for GCCCCTCC, the figure is 0.158 E-score.
With ATCGTAAT, the binding signal was 0.178 E-score.
As for AGGCACGA, the binding signal is -0.166 E-score.
As for CCGTAAGA, the figure is -0.0735 E-score; as for AGCGTACG, -0.282 E-score; as for GTACCAAC, -0.185 E-score.
As for AATGCAAC, the figure is -0.138 E-score; as for CGTCATAC, 0.094 E-score; as for AGCGACAT, -0.0929 E-score.
As for AAGTATTG, the figure is 0.157 E-score; as for AAATTGCG, -0.101 E-score; as for TCCAAACA, -0.0916 E-score.
For the sequence CGTTCCAA, the binding signal is -0.199 E-score.
In the case of AATACTAT, the binding signal turned out to be 0.278 E-score.
As to GTATCGGA, the binding signal turned out to be 0.451 E-score.
In the case of TCTGTGCA it was 0.0882 E-score.
Take AATTATCC: the binding signal is 0.134 E-score.
Turning to CACTTTAG, the binding signal is 0.0665 E-score.
As for ATCGGACG, the binding signal came to 0.179 E-score.
On to CTTTATGC, for which the binding signal is -0.0501 E-score.
Take ACGCGACT: the binding signal was -0.0828 E-score.
As for GAAAGGTA, the figure is 0.046 E-score; as for CTATATCC, 0.366 E-score.
With TGGATAAA, the binding signal was determined as 0.144 E-score.
As to CTGGGGTC, the binding signal is 0.164 E-score.
In the case of CTCTCCTA it was 0.0537 E-score; in that of ATAATCTG, 0.197 E-score.
AGACGTAT: the binding signal was determined as 0.319 E-score.
In the case of GCTGGATA it was 0.324 E-score.

These data come from publication PMC10668032.
